From the BET-seq Pho4 binding data (Le et al. 2018) come the findings set out here.

The other results are listed elsewhere or left out. Values were computed here from the reads of four pooled replicates and scatter widely.

The target in the assay is T1, Pho4 (S. cerevisiae) (UniProt P07270).
T1 sequence: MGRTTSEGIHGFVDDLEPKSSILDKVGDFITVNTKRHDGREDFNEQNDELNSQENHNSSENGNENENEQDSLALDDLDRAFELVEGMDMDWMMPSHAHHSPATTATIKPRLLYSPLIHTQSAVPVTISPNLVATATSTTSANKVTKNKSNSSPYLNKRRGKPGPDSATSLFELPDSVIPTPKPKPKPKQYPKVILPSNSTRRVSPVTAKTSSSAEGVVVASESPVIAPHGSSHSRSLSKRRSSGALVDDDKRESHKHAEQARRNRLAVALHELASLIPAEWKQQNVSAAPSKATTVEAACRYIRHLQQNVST
The experiment in a line: relative binding free energy (BET-seq); higher = weaker binding. Conditions: reference: library average.
Turning to AGTAGCACGTGAATTG, the “relative binding free energy” value stood at 0.14 kcal/mol.
On to CTTTACACGTGGTGAA, for which the “relative binding free energy” value was 0.07 kcal/mol.
With GTTCGCACGTGGGCGG, the “relative binding free energy” value was -0.23 kcal/mol.
With ATTGACACGTGGTTAG, the “relative binding free energy” value was -0.14 kcal/mol.
As to TGATGCACGTGATTAA, the “relative binding free energy” value is 0.16 kcal/mol.
The same measure for CTGATCACGTGATTTT: 0.28 kcal/mol.
Turning to TGCTGCACGTGTTTAT, the “relative binding free energy” value is -0.02 kcal/mol.
The same measure for TTTTGCACGTGGCAGG: -0.08 kcal/mol.
TTAAGCACGTGTCTGT: the “relative binding free energy” value was -0.09 kcal/mol.
The same measure for AGTTTCACGTGCTTTG: 0.34 kcal/mol.
The same measure for GCTGGCACGTGTATAT: -0.01 kcal/mol; for TGCTACACGTGGGAGT: 0.03 kcal/mol; for TTATTCACGTGATATT: 0.29 kcal/mol.
Turning to ATACGCACGTGGGTTA, the “relative binding free energy” value was -0.17 kcal/mol.
Turning to GGGTTCACGTGGGCTA, the “relative binding free energy” value was 0.31 kcal/mol.
With TTGGTCACGTGGTCCA, the “relative binding free energy” value is 0.04 kcal/mol.
For the sequence CGTGTCACGTGATGAG, the “relative binding free energy” value was found to be 0.19 kcal/mol.
The same measure for CGGTGCACGTGGGTTG: -0.21 kcal/mol; for TGTTCCACGTGATAGT: 0.07 kcal/mol.
For TGGATCACGTGGTTAT, the “relative binding free energy” value turned out to be 0.15 kcal/mol.
The same measure for TGTGTCACGTGCAAGT: 0.15 kcal/mol; for TTTGTCACGTGGTCTA: -0.03 kcal/mol; for GTTGGCACGTGTCTTG: 0 kcal/mol.
As for GGTACCACGTGTTGGC, the “relative binding free energy” value worked out at 0.05 kcal/mol.
To GTAGGCACGTGTAGTG belongs -0.02 kcal/mol; to GTGTCCACGTGGTGCG, -0.04 kcal/mol; to TGCCTCACGTGGGTGG, -0.01 kcal/mol.
To TTGGTCACGTGCGAGT belongs 0.15 kcal/mol; to TATTGCACGTGGAAAG, 0.07 kcal/mol.
For the sequence GTCGGCACGTGGGCTA, the “relative binding free energy” value is -0.17 kcal/mol.
The same measure for GGGTGCACGTGTTAAC: 0 kcal/mol; for ATTGCCACGTGATATT: 0.06 kcal/mol.
To GGAATCACGTGGATGT belongs 0.09 kcal/mol; to TTTGTCACGTGAGGGT, 0.32 kcal/mol; to AGGTTCACGTGGCCTT, 0.17 kcal/mol.
In the case of TAGGACACGTGTTCTT, the “relative binding free energy” value is 0.05 kcal/mol.
In the case of CGGTTCACGTGGCTTT, the “relative binding free energy” value was 0.14 kcal/mol.
The same measure for AGAAGCACGTGAGTAG: 0.21 kcal/mol.
For the sequence GGTGTCACGTGCAGGA, the “relative binding free energy” value is 0.13 kcal/mol.
For CGAGACACGTGCGTGG, the “relative binding free energy” value amounted to 0.01 kcal/mol.
The same measure for TTTAACACGTGTGTAA: 0.06 kcal/mol.
The same measure for TTTTTCACGTGGGGTG: 0.16 kcal/mol; for GTGTCCACGTGGAGAG: 0.1 kcal/mol.
To CTGTTCACGTGGTGTT belongs 0.18 kcal/mol; to TAAGTCACGTGGGATG, 0.09 kcal/mol.
As for GTTTACACGTGAAATA, the “relative binding free energy” value was found to be 0.37 kcal/mol.
The same measure for GCGTTCACGTGGAGAG: 0.28 kcal/mol; for TAGAGCACGTGAGGTA: 0.07 kcal/mol; for CGCGACACGTGGGGTT: -0.1 kcal/mol.
For the sequence AGTTTCACGTGGCAAG, the “relative binding free energy” value was 0.19 kcal/mol.
Consider TGATGCACGTGGTTAC, for which the “relative binding free energy” value came out at 0.12 kcal/mol.
Turning to GCCGACACGTGGGGGT, the “relative binding free energy” value is -0.15 kcal/mol.
To GTGGGCACGTGGCGAT belongs -0.1 kcal/mol.
To ACTGTCACGTGATGGG belongs 0.08 kcal/mol; to TGGAACACGTGAGCGG, 0.09 kcal/mol; to TCGTGCACGTGGGATA, -0.09 kcal/mol.
As to ATGGTCACGTGTTAAA, the “relative binding free energy” value amounted to 0.19 kcal/mol.
The same measure for GTCTCCACGTGTGGGA: 0.19 kcal/mol; for TATGTCACGTGGTTCT: 0.04 kcal/mol.
To TTTCTCACGTGTGTTA belongs 0.22 kcal/mol.
The same measure for AGAATCACGTGATGGG: 0.26 kcal/mol; for GATTTCACGTGGATCT: 0.37 kcal/mol.
Consider GTTGGCACGTGTTAAT, for which the “relative binding free energy” value came to 0.12 kcal/mol.
The same measure for TGAGTCACGTGGTCGG: -0.04 kcal/mol; for GTTCTCACGTGTGGTG: 0.25 kcal/mol; for ATGGTCACGTGAGCGA: 0.43 kcal/mol.
For the sequence GTTTCCACGTGGGTTC, the “relative binding free energy” value was found to be 0.08 kcal/mol.
To TGGGACACGTGCGTGG belongs -0.01 kcal/mol.
The same measure for AGGCTCACGTGGTTGG: 0.17 kcal/mol.
For the sequence AGAGGCACGTGAGCGG, the “relative binding free energy” value amounted to 0.07 kcal/mol.
As for AAGGGCACGTGCGAGG, the “relative binding free energy” value is -0.22 kcal/mol.
Consider GATGGCACGTGGTCAA, for which the “relative binding free energy” value was -0.06 kcal/mol.
TTAACCACGTGTTGTG: the “relative binding free energy” value is -0.13 kcal/mol.
To GGTTGCACGTGGGTTA belongs -0.11 kcal/mol.
As for GGGTACACGTGCTGTT, the “relative binding free energy” value is -0.13 kcal/mol.
As for GTTGGCACGTGTATCT, the “relative binding free energy” value was 0.01 kcal/mol.
Regarding TCATGCACGTGCGGTG, the “relative binding free energy” value was -0.1 kcal/mol.
Consider CAATTCACGTGTGGAG, for which the “relative binding free energy” value was found to be 0.32 kcal/mol.
To TGGAGCACGTGGATAG belongs -0.15 kcal/mol; to TACGTCACGTGGAAGT, 0.1 kcal/mol.
Consider AGTTACACGTGCAGGG, for which the “relative binding free energy” value is 0.05 kcal/mol.
As for AGACGCACGTGTGTTT, the “relative binding free energy” value is -0.07 kcal/mol.
The same measure for GGGTGCACGTGAAAGG: 0.29 kcal/mol; for GTAGTCACGTGCTGCG: 0.04 kcal/mol.
The same measure for GGAGTCACGTGTATAA: 0.1 kcal/mol; for ATTGACACGTGTTATC: 0.23 kcal/mol.
To TGTTTCACGTGATAGC belongs 0.27 kcal/mol; to TTCTTCACGTGAATGT, 0.57 kcal/mol.
Consider TTCGGCACGTGTTCGG, for which the “relative binding free energy” value was found to be 0.05 kcal/mol.
Regarding TGGATCACGTGGGAAG, the “relative binding free energy” value was 0.09 kcal/mol.
For the sequence CGGGTCACGTGTCAAT, the “relative binding free energy” value turned out to be 0.35 kcal/mol.
The same measure for GGTGACACGTGTTGCT: 0.05 kcal/mol; for GCGGTCACGTGGGGAG: 0.1 kcal/mol; for AGCTGCACGTGAAAGG: 0.26 kcal/mol.
To CTATGCACGTGATGGT belongs 0.05 kcal/mol.
To TCGTTCACGTGTGATA belongs 0.12 kcal/mol; to TCTGACACGTGGTGTA, -0.03 kcal/mol; to GTGCCCACGTGAGTGT, 0.1 kcal/mol.
Take TTTAACACGTGGGTTT: the “relative binding free energy” value was -0.04 kcal/mol.
TGTTACACGTGGGACA: the “relative binding free energy” value stood at 0.06 kcal/mol.
The same measure for GCGGCCACGTGAGTGG: 0.13 kcal/mol; for GGTATCACGTGGGTCG: 0.12 kcal/mol.
With AGTAGCACGTGACAGT, the “relative binding free energy” value is 0.07 kcal/mol.
In the case of AAAATCACGTGTTGGT, the “relative binding free energy” value amounted to 0.09 kcal/mol.
To AGGTGCACGTGAGTGA belongs 0.1 kcal/mol.
For the sequence TTCTGCACGTGTGCGA, the “relative binding free energy” value came out at 0.13 kcal/mol.
On to CGTGGCACGTGGTGTG, for which the “relative binding free energy” value was -0.17 kcal/mol.
To AGGAGCACGTGCGGGA belongs -0.09 kcal/mol; to AGGGTCACGTGGGGCA, -0.05 kcal/mol; to TGTTACACGTGCGTTG, 0.04 kcal/mol.
To TCGTGCACGTGATTGT belongs -0.01 kcal/mol; to TAGCTCACGTGGGCGT, 0.07 kcal/mol; to TTCTTCACGTGGGTGA, 0.15 kcal/mol.
The same measure for AAAAACACGTGGGGGC: -0.02 kcal/mol.
Turning to TGGGGCACGTGTTAGG, the “relative binding free energy” value was -0.06 kcal/mol.
To AAGGTCACGTGTGGTG belongs 0.14 kcal/mol.
As for TCGCGCACGTGTGGTT, the “relative binding free energy” value is -0.04 kcal/mol.
To TGGGTCACGTGAATGA belongs 0.27 kcal/mol; to TGAGCCACGTGGGTGT, -0.24 kcal/mol.
To GATGCCACGTGTGAGT belongs -0.01 kcal/mol; to CTTTGCACGTGTTCGT, -0.04 kcal/mol; to TGAGGCACGTGGGGAA, -0.19 kcal/mol.
As to TTTTGCACGTGGGGAC, the “relative binding free energy” value was -0.03 kcal/mol.
On to GTATACACGTGGTTCT, for which the “relative binding free energy” value was determined as 0.07 kcal/mol.
As to TCGGTCACGTGGTTAG, the “relative binding free energy” value is -0.04 kcal/mol.
The same measure for AGTAACACGTGAGTGG: 0.24 kcal/mol; for GACTGCACGTGGGGGT: -0.25 kcal/mol.
As to CGGGGCACGTGGGGTA, the “relative binding free energy” value is -0.17 kcal/mol.
The same measure for GAGTTCACGTGGCATA: 0.44 kcal/mol; for TATTCCACGTGATGGT: 0.27 kcal/mol.
The same measure for TATTGCACGTGATGTG: 0.11 kcal/mol; for GCAATCACGTGGGGTG: 0.04 kcal/mol.
To AAATTCACGTGTCTTT belongs 0.24 kcal/mol; to TAGGTCACGTGTTATG, 0.22 kcal/mol; to TAGAACACGTGGTGGT, 0.05 kcal/mol.
As for CCTGGCACGTGTAGGG, the “relative binding free energy” value was 0 kcal/mol.
In the case of TGAATCACGTGTAGTA, the “relative binding free energy” value was determined as 0.39 kcal/mol.
The same measure for AAGCACACGTGAGGGT: 0.27 kcal/mol.
As for CGCTGCACGTGCGGGT, the “relative binding free energy” value is -0.04 kcal/mol.
The same measure for ATGGTCACGTGGCAAG: 0.1 kcal/mol; for TGGAACACGTGCGGGA: 0.13 kcal/mol; for CGATTCACGTGGTGGT: 0.19 kcal/mol.
The same measure for GGGATCACGTGGATAA: 0.22 kcal/mol; for AATAACACGTGAGGTT: 0.14 kcal/mol; for TTTTACACGTGGGGGA: 0 kcal/mol.
On to GAATGCACGTGGAGTT, for which the “relative binding free energy” value was 0.17 kcal/mol.
